Reference: PubChem BioAssay AID662 (National Center for Advancing Translational Sciences (NCATS), 2007)
About 1,800 (2.5%) of roughly 71,000 compounds were called active. Inconclusive results, whose numbers are uncertain, are shown with a selection of clear calls. The call rests on the fitted dose curve; in most records, active means well fitted activation curve with a large enough effect in the signal ratio, with a control signal flat (not every such curve was filed as active); inconclusive means small, poorly fitted or top-dose-only effect, or effect the other way, or a change in a side signal; inactive means flat fitted curve, though single readings scatter; the % refers to the signal ratio. Potencies beside an inconclusive call are fits to weak or partial responses and may not hold up.

experiment: Cell signaling CRE-BLA (Fsk stim); conditions: CHO CRE-bla reporter (cAMP response element driving beta-lactamase), forskolin EC10, beta-lactamase ratio; activity change, negative = inhibition: at 38.2 µM (top of the series) unless noted; on activity change, negative = inhibition: % of control where 0% means no effect
In short: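 The 460nm/530nm emission ratio after CCF4 loading defined %Activity, from which AC50 values were obtained. CRE-bla CHO cells received compound dilution series together with an EC10 level of NKH 477 for 3 hours at 37 degrees Celsius.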
Potency means the concentration at half of the fitted maximal effect; tags describe the fitted curve by direction and shape.

Row | SMILES | Potency | activity change, negative = inhibition
1 | O=C(NCc1ccc2c(c1)OCO2)c1ccc(-c2ccc(Cl)cc2)o1 | inconclusive: 12.6 µM [rising, partial curve] | –
2 | C=CCSc1nc2c(cc1C#N)CCC2 | – | inactive: -3.16%
3 | COc1ccc(Cl)cc1NC(=O)CN(C1CCCCC1)S(C)(=O)=O | – | inactive: 8.28%
4 | COCCSc1ccccc1C(=O)Nc1nnc(COC)s1 | – | inconclusive: -21.7%
5 | NC(=O)NC(N)=O | – | inactive: -0.428%
6 | Cc1ccc(C)c2[nH]c(=O)c(CN(CC3CCCO3)S(=O)(=O)c3ccc4c(c3)OCCO4)cc12 (stereo unspecified) | – | inactive: 2.15%
7 | O=C(OCCN1C(=O)c2ccccc2C1=O)C1CCN(S(=O)(=O)c2cccs2)CC1 | – | inconclusive: 6.79%
8 | C=CCNS(=O)(=O)c1cccc2cc(C(=O)O)c(O)cc12 | inconclusive: 25.1 µM [falling, single point] | –
9 | Cc1c(NC(=O)c2cnn3cccnc23)c(=O)n(-c2ccccc2)n1C | – | inactive: -4.49%
10 | O=S1(=O)N=C(Nc2nc3c(s2)CCCC3)c2ccccc21 | – | inactive: 0.241%
11 | COc1ccc(CN(C2CCCC2)S(=O)(=O)c2ccc(-n3cnnn3)cc2)cc1 | – | inconclusive: 18.2%
12 | Cc1noc(C)c1-c1nc(NCc2cccs2)c2ccccc2n1 | inconclusive: 10 µM [rising, partial curve] | –
13 | CC(C)C[C@@H](CC(=O)N[C@@H](CCC(=O)O)CC(=O)O)NC(=O)[C@@H]1CNCC[C@H]1NC(=O)C[C@H](CCCN)NC(=O)C[C@H](Cc1ccccc1)NC(=O)[C@@H]1CCCC[C@H]1N | – | inconclusive: -16.8%
14 | CC1CCCCN1Cc1nc2c(c(=O)n(C)c(=O)n2C)n1CCc1ccccc1 (stereo unspecified) | – | inactive: -5.59%
15 | CC1CCc2sc3nc(N4CCN(CCO)CC4)n4ncnc4c3c2C1 (stereo unspecified) | active: 5.01 µM | –
16 | CC(=O)N(C)c1ccc(NC(=O)c2cnn(C)c2)cc1 | – | inconclusive: -3.47%
17 | CCc1nc(SCC(=O)Nc2cc(C)on2)c2c(=O)n(C)c(=O)n(C)c2n1 | inconclusive: 5.01 µM [rising, partial curve] | –
18 | O=C(C1CCN(S(=O)(=O)c2cccc3cccnc23)CC1)N1CCN(c2ccccn2)CC1 | – | inconclusive: -28.3%
19 | COCCN1Cc2cccc(C(=O)Nc3ccc(C)c(C)c3)c2C1=O | – | inconclusive: 10.7%
20 | CC1Cc2cc(/C(O)=C3/C(=O)C(=O)N(CC4CCCO4)C3c3ccco3)ccc2O1 (stereo unspecified) | – | inactive: -13.9%
21 | COC(=O)c1sccc1NC(=O)c1ccoc1C | active: 10 µM | –
22 | CCN1CCC[C@@H]1CNC(=O)c1cc(S(N)(=O)=O)ccc1OC | – | inconclusive: -13.3%
23 | CC1(C)CC(=O)C=C(NCCCN2CCCC2=O)C1 | – | inconclusive: 2.4%
24 | COC(=O)[C@@]1(Cc2ccc(OC)cc2)[C@H]2c3cc(C(=O)N4CCCC4)n(CCN4CCOCC4)c3C[C@H]2CN1C(=O)c1ccccc1 | – | inactive: -7.46%
25 | CCCC(=O)N(c1ccc2oc(=O)sc2c1)S(=O)(=O)c1ccccc1 | – | inconclusive: 26.8%
26 | CC(C)n1c(NCc2cc(Cl)ccc2O)nc2ccccc21 | – | inconclusive: -19.6%

Row | SMILES | Potency | activity change, negative = inhibition
27 | O=C(O)C1CC=CCC1C(=O)NCc1cn2ccccc2n1 (stereo unspecified) | – | inactive: 3.64%
28 | Cc1cnc(CNc2ccnc(-c3c(C)noc3C)n2)cn1 | – | inconclusive: 25.8%
29 | O=c1c(O)c(-c2ccc(O)cc2)oc2cc(O)cc(O)c12 | inconclusive: 31.6 µM [falling, single point] | –
30 | N#CC1=C(N)NC(SCc2ccccc2)=C(C#N)C12CCCCC2 | inconclusive: 5.01 µM [rising, single point] | –
31 | CCOc1ccccc1N1CCN(S(=O)(=O)c2ccc3c4c(cccc24)C(=O)N3)CC1 | inconclusive: 25.1 µM [rising, single point] | –
32 | CC(CCc1ccco1)NC(=O)c1cc2c(-c3ccccc3F)nn(C)c2s1 (stereo unspecified) | inconclusive: 1.58 µM [rising, full curve, poor fit] | –
33 | CN(C)c1ccc(-c2ccc3ncnc(NC4CC4)c3c2)cc1 | – | inconclusive: 24.3%
34 | CC(C)(CO)[C@H](O)C(=O)NCCC(=O)O | – | inactive: 2.36% [at 17.1 µM]
35 | O=C(Nc1ccccc1)N1CCC2(CC1)CCN(C(=O)c1ccncc1)CC2 | – | inactive: -5.52%
36 | COc1ccc(C(=O)OCCN=C2NS(=O)(=O)c3ccccc32)cc1OC | inconclusive: 20 µM [rising, single point] | –
37 | COCCOC(=O)C1=C(N)OC2=C(C(=O)CC(C)(C)C2)C1c1cccnc1 (stereo unspecified) | – | inactive: 0.513%
38 | O=C1N(Cc2ccc3c(c2)OCO3)c2ccccc2C1(O)c1c[nH]c2ccccc12 (stereo unspecified) | inconclusive: 10 µM [falling, single point] | –
39 | CN(C)c1ccc(-c2nc(NCCc3cnc[nH]3)c3ccccc3n2)cc1 | inconclusive: 10 µM [falling, partial curve] | –
40 | O=C(COc1cccc(OC(F)F)c1)Nc1ccc(SC(F)F)cc1 | inconclusive: 3.98 µM [falling, single point] | –
41 | CCOC(=O)c1sc(NC(=O)CSc2ncn[nH]2)c(C#N)c1C | – | inconclusive: 11.1% [cytotoxic]
42 | O=C1CCCC2=C1C1(CCCCC1)N=C(Nc1nc3ccccc3o1)N2 | inconclusive: 3.98 µM [rising, partial curve] | –
43 | CCNc1ncc2nc(-c3ccc(F)cc3)c(=O)n(C[C@H]3CCCO3)c2n1 | active: 2.51 µM | –
44 | S=P(c1ccc(N2CCOCC2)cc1N1CCOCC1)(N1CCOCC1)N1CCOCC1 | – | inactive: 7.71%
45 | Cc1ccc(CNC(=O)[C@H](C)[C@@H]2C[C@@]2(C)[C@@H](NC(=O)OCc2ccccc2)c2ccccc2)o1 | – | inactive: -14.6%
46 | CCCS(=O)(=O)N1CCC(C(=O)N2CCN(C(=O)OCC)CC2)CC1 | – | inconclusive: 7.14%
47 | COc1cc(NC(=O)C2CC(c3cccc(OC)c3OC)=NO2)cc(OC)c1OC (stereo unspecified) | inconclusive: 15.8 µM [rising, single point] | –
48 | CCOC(=O)Cc1c(C)nc2c(C#N)c(C)nn2c1C | inconclusive: 25.1 µM [rising, single point] | –
49 | O=C(COc1nnc2ccccn12)N1CCN(S(=O)(=O)c2ccccc2)CC1 | – | inactive: -5.56%
50 | Cc1ccc(/C(O)=C2\C(=O)C(=O)N(c3cc(C)on3)C2c2cccc(Cl)c2)cc1 (stereo unspecified) | – | inconclusive: 20.4%
51 | CN(C)CCN1C(=O)C(=O)/C(=C(/O)c2ccccc2)C1c1ccccc1F (stereo unspecified) | – | inactive: -1.31%
